According to PubChem BioAssay AID2147 (National Center for Advancing Translational Sciences (NCATS), 2009):
Screen size: about 230,000 compounds; about 3,600 (1.6%) were called active. The shares of active, inactive and inconclusive entries below differ from those in the screen. Calls follow the shape of the dose curve; as a rule, active = well fitted inhibition curve with a large enough effect (not every such curve was filed as active); inconclusive = small, poorly fitted or top-dose-only effect, or another doubt; inactive = no such curve, though single readings can be large or run the other way. Potencies of inconclusive entries are doubtful fits and often do not repeat.

biological target: Lysine-specific demethylase 4E (Homo sapiens) (UniProt B2RXH2); assay: qHTS Assay for Inhibitors of Human Jumonji Domain Containing 2E (JMJD2E); conditions: JMJD2E catalytic domain, FDH-coupled NADH fluorescence (FDH is formaldehyde dehydrogenase); series mostly up to 57.1 µM
UniProt B2RXH2, sequence (B2RXH2 whole entry, looked up, the tested form may be a part): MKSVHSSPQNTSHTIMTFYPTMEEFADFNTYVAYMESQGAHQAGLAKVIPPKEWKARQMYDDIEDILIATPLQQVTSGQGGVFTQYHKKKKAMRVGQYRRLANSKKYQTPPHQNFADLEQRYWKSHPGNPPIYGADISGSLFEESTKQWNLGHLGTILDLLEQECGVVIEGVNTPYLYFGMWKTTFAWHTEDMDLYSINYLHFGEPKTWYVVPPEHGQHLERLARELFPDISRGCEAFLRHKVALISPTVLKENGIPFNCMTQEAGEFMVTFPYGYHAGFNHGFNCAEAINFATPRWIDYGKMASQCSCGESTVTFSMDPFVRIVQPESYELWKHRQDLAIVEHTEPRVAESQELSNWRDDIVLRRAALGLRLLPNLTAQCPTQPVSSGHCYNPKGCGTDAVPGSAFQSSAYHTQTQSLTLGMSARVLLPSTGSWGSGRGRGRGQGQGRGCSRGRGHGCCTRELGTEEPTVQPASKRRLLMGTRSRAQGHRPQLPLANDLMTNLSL
Also: nearly all actives have a fitted effect of over 50% in size.
Potency is read from the fitted curve at half-maximal effect; tags tell the direction and shape of the fitted curve.

| SMILES | Potency |
| --- | --- |
| Oc1ccc(/C=N/Nc2nccnc2Cl)c(O)c1 | inconclusive: 7.08 µM [inhibitor, single point] |
| N#Cc1nc(COc2ccc(Br)cc2)oc1NCCN1CCOCC1 | inconclusive: 39.8 µM [inhibitor, single point] |
| COCC1CCN(Cc2cn(-c3ccccc3F)nc2-c2cc(C)sc2C)CC1 | inactive |
| Cc1ccc(Nc2ncc3c(n2)CC(C)(C)CC3=O)cc1 | inconclusive: 28.2 µM [inhibitor, partial curve, poor fit] |
| COc1ccc(NCc2cc3ccccc3[nH]c2=O)cc1 | inconclusive: 35.5 µM [inhibitor, single point] |
| CC1(C)CC(=NNC(=O)c2n[nH]c3c2CCC3)CC(C)(C)N1 | inactive |
| O=C(NC(CO)(CO)CO)c1coc(=O)c(Br)c1 | inconclusive: 31.6 µM [inhibitor, partial curve] |
| CC(=O)C1=C(O)C(=O)N(c2ccc(S(N)(=O)=O)cc2)C1c1ccccc1F (centres undefined) | inconclusive: 35.5 µM [inhibitor, single point] |
| CCC(C)N(C(=O)COC(=O)C1C(C(=O)OC)=C(C)NC(C)=C1C(=O)OC)C1CCS(=O)(=O)C1 (centres undefined) | inconclusive: 28.2 µM [inhibitor, partial curve] |
| CC(=O)Nc1ccc(N2CCN(c3ccc(C(F)(F)F)cn3)CC2)nc1 | inconclusive: 12.6 µM [inhibitor, partial curve, poor fit] |
| CN1c2ccccc2Oc2nnc(N3CCN(Cc4ccccc4)CC3)cc21 | inconclusive: 28.2 µM [inhibitor, partial curve] |
| COc1cc(NC(=O)Cn2c(C)cc3ccccc3c2=O)cc(OC)c1OC | inconclusive: 39.8 µM [inhibitor, single point] |
| CCN(CC)CCNC(=O)c1ccc2c(=O)n(C3CCCC3)c(=S)[nH]c2c1 | inactive |
| CC(C)OC(=O)c1cccc(C(=O)OCc2ccco2)n1 | inactive |
| CCC(C)Nc1nnnc2c1sc1nc3c(cc12)COC(C)(C)C3 (centres undefined) | inconclusive: 35.5 µM [inhibitor, single point] |
| COC(=O)c1ccccc1NC(=O)N1c2ccccc2Sc2ccccc21 | inconclusive: 39.8 µM [inhibitor, single point] |
| Cc1nc(N2CCOCC2)c(C#N)c2c1COC(C)(C)C2 | inconclusive: 31.6 µM [inhibitor, partial curve] |
| CC(C)Cc1nc(N2CCN(C(=O)c3ccccc3)CC2)c(C#N)c2c1CCC2 | inconclusive: 17.8 µM [inhibitor, partial curve] |
| O=C(Cc1ccccc1)Nc1ccc(NC(=O)c2cccs2)c(Cl)c1 | inconclusive: 39.8 µM [inhibitor, single point] |
| COC(=O)c1ccccc1NC1CC(=O)N(c2c(C)cccc2C)C1=O (centres undefined) | inconclusive: 25.1 µM [inhibitor, partial curve] |
| Cc1ccc2nc(-c3cccnc3)oc2c1 | inconclusive: 31.6 µM [inhibitor, partial curve] |
| CC(=O)Nc1ccc(S(=O)(=O)Nc2ccc(S(=O)(=O)N3CCCC3)cc2)cc1 | inactive |
| Cc1ccc(C(=O)NCC(=O)OCC(=O)/C=C2\N(C)c3ccccc3C2(C)C)cc1C | inconclusive: 39.8 µM [inhibitor, single point] |

| SMILES | Potency |
| --- | --- |
| O=C(CCn1nnc2ccccc2c1=O)NCC1CCC(C(=O)O)CC1 (centres undefined) | inactive |
| COCC1C2CC[C@H]3C(OCc4ccc(F)cc4C(F)(F)F)OC[C@]4(C)[C@H]3C2=C(CN4C(=O)OC(C)(C)C)[C@H](C)C1COC (some centres undefined) | inconclusive: 35.5 µM [inhibitor, single point] |
| O=C1OC(NCc2cccnc2)(c2ccc(Cl)cc2)c2ccccc21 (centres undefined) | inactive |
| CC(=O)Nc1ccc(S(=O)(=O)Nc2ccccn2)cc1 | inconclusive: 28.2 µM [inhibitor, single point] |
| COc1ccc(/C=C/C(=O)OCc2csc(-c3ccccc3)n2)cc1OC | inconclusive: 28.2 µM [inhibitor, partial curve] |
| CC(=O)N1C(=O)CC(C)N(C(C)=O)c2ccc([N+](=O)[O-])cc21 (centres undefined) | inconclusive: 39.8 µM [inhibitor, single point] |
| CN(C)C(=O)c1ccc(NC(=O)c2cccnc2)cc1 | inactive |
| COc1ccc2c(-c3ccccc3)cc(SCC(=O)NC(N)=O)nc2c1 | inconclusive: 28.2 µM [inhibitor, partial curve] |
| O=C(CSc1nc(-c2ccccc2)c(-c2ccccc2)[nH]1)NCC1CCCO1 (centres undefined) | inconclusive: 25.1 µM [inhibitor, partial curve] |
| CCN1C(=O)C(CC(=O)Nc2c(C)cccc2C)Nc2cc(S(=O)(=O)N(C)C)ccc21 (centres undefined) | inconclusive: 35.5 µM [inhibitor, single point] |
| N#Cc1ncc(Cl)c2ccccc12 | inconclusive: 25.1 µM [inhibitor, partial curve] |
| CS(=O)(=O)c1nc(-c2cccs2)cc(C(F)(F)F)n1 | inconclusive: 28.2 µM [inhibitor, partial curve] |
| Cc1cc(C(=O)NNC(=S)NC(=O)/C=C/c2ccccc2Cl)n[nH]1 | active: 7.94 µM |
| COc1cc2[nH]c(=S)n(C3CC3)c(=O)c2cc1OC | inactive |
| COC(=O)c1cn(NC(=O)Cc2cccc(C(F)(F)F)c2)c(=O)c2ccccc12 | inconclusive: 39.8 µM [inhibitor, single point] |
| O=C(N/N=C/c1c(Cl)[nH]c2ccccc12)c1ccc2c(c1)OCCO2 | inconclusive: 39.8 µM [inhibitor, single point] |
| Cc1ccc(C)c(-c2nc3cc(N)ccc3o2)c1 | inconclusive: 35.5 µM [inhibitor, partial curve] |
| O=C(CCC(=O)Nc1ccc(F)cc1)N/N=C/c1ccc(O)cc1O | active: 25.1 µM |
| O=c1c2ccccc2ncn1Cc1cccc2ccccc12 | inactive |
| O=C(Nc1cccs1)Nc1ccccc1Cl | inconclusive: 31.6 µM [inhibitor, single point] |
| O=C(c1ccco1)N1CCN(CCCCOc2cccc3ccccc23)CC1 | inconclusive: 39.8 µM [inhibitor, single point] |
| C/C(CC(=O)Nc1ccc(Cl)c(C(F)(F)F)c1)=N\NC(=O)c1ccccc1O | inconclusive: 39.8 µM [inhibitor, single point] |
| COc1ccccc1OCC(O)Cn1nc(C)cc1C (centres undefined) | inconclusive: 28.2 µM [inhibitor, partial curve] |

| SMILES | Potency |
| --- | --- |
| Cc1cc(/C=C\c2ccc3cc(N(C)C)ccc3[n+]2C)c(C)n1-c1ccccc1 | inconclusive: 4.47 µM [inhibitor, full curve] |
| O=c1c(O)c(-c2ccccc2)oc2cccc(O)c12 | inconclusive: 39.8 µM [inhibitor, single point] |
| C=CCCCCc1nc2ccccc2c(=O)n1N | inactive |
| COc1ccc2oc(-c3ccccc3)c(C(N)=O)c2c1 | inconclusive: 1.58 µM [inhibitor, full curve] |
| Clc1ccc(CNc2ccccn2)cc1 | inconclusive: 22.4 µM [inhibitor, partial curve] |
| CCn1c(=O)c(-c2ccccc2)c(O)c2ccccc21 | inconclusive: 39.8 µM [inhibitor, single point] |
| c1ccc(OCc2nnc3sc(C4COc5ccccc5O4)nn23)cc1 (centres undefined) | inactive |
| CC1CCCC(NC(=O)COC(=O)/C=C/c2ccc3c(c2)OCO3)C1C (centres undefined) | inconclusive: 25.1 µM [inhibitor, partial curve] |
| Cc1ccc(OCC(=O)Nc2ccc(CN3CCCCC3)cc2)c(C)c1 | inconclusive: 39.8 µM [inhibitor, single point] |
| CCCC[C@@H]1C[C@H]1C(NC(=O)c1cccnc1)c1ccc(-c2ccccc2)cc1 (some centres undefined) | inactive |
| CSc1nc2nccc(-c3ccc(Cl)cc3)n2n1 | inconclusive: 8.91 µM [inhibitor, single point] |
| Oc1cccc(C2c3[nH]c4ccccc4c3CCN2Cc2ccc3c(c2)CCO3)c1 (centres undefined) | inactive |
| CCc1nc2ccccc2n1Cc1cc(=O)n2cc(C)ccc2n1 | inconclusive: 28.2 µM [inhibitor, partial curve] |
| COc1cccc2sc(Nc3nnc(-c4cccs4)o3)nc12 | inconclusive: 3.16 µM [inhibitor, partial curve] |
| CC(=O)c1cc2c(cc1NC(=O)c1cc(C)nn1-c1ccccc1)OCO2 | inconclusive: 2.82 µM [inhibitor, partial curve] |
| CCc1ccc(N(C(=O)c2snc(C(N)=O)c2N)C(C(=O)NCC2CCCO2)c2cccs2)cc1 (centres undefined) | inconclusive: 28.2 µM [inhibitor, partial curve] |
| Cc1cc(/C=N/n2cnnc2)c(C)n1-c1ccc(OCc2ccc(Cl)cc2Cl)cc1 | inconclusive: 31.6 µM [inhibitor, single point] |
| Cc1ccccc1OCCNc1cc(N2CCCCC2)ccc1[N+](=O)[O-] | inactive |
| Cc1c(CCC(=O)O)c(=O)oc2cc3occ(C(C)(C)C)c3cc12 | inconclusive: 35.5 µM [inhibitor, partial curve] |
| CCOc1ccccc1NC(=O)Cn1cnc2c(nnn2-c2cccc(OC)c2)c1=O | inconclusive: 39.8 µM [inhibitor, single point] |
| CC1C=CCC2C(=O)N(c3cccc(C(=O)N4CCN(c5ccc(F)cc5)CC4)c3)C(=O)C12 (centres undefined) | inconclusive: 15.8 µM [inhibitor, partial curve, poor fit] |
| O=C(O)c1ccc(COc2ccc3c(c2)CCC3)cc1 | inactive |
| COc1ccc2[nH]c(C(=O)O)c(CCN3C(=O)c4cccc([N+](=O)[O-])c4C3=O)c2c1 | inactive |
